Reference: patent US9745597B2, “Compositions and methods for controlling fungal and bacterial diseases in plants” (priority 2014, dated 2017)

Legend:
Type in all cases: cell-based
Erwinia carotovora = experiment: In vitro control of Erwinia carotovora, OD600 in 96-well plates (Example 27); details: bacterial growth by OD600, mixture = 95% cell-free whole broth + 5% adjuvant
Description: (§1) A whole broth culture of Bacillus subtilis QST713 was prepared in a soy-based medium. Bacillus subtilis cells were removed from the whole broth culture by centrifugation. […] After several hours, the OD600 in each well was measured and compared to the initial OD600 to determine the relative bacterial growth compared to that of the bacterial suspension in the untreated well.

[1] = test system: Xanthomonas campestris pv. vesicatoria; experiment: In vitro control of Xanthomonas campestris pv. vesicatoria, OD600 in 96-well plates (Example 25); details: bacterial growth by OD600, mixture = 95% cell-free whole broth + 5% adjuvant
Description: as §1, with “medium as described above.” for “medium.”

[2] = test system: Pseudomonas syringae pv. tomato; experiment: In vitro control of Pseudomonas syringae pv. tomato, OD600 in 96-well plates (Example 26); details: rate 0.11%; bacterial growth by OD600; mixture = 95% cell-free whole broth + 5% adjuvant
Description: as §1

Molecule | Efficacy in % Found (Erwinia carotovora; rate 0.11%) [%] | Efficacy in % Found (Erwinia carotovora; rate 0.22%) [%] | Efficacy in % Found ([1]; rate 0.11%) [%] | Efficacy in % Found ([1]; rate 0.22%) [%] | Efficacy in % Found ([1]; rate 0.44%) [%] | Efficacy in % Found [2] [%] | Efficacy in % Found (Erwinia carotovora; rate 0.44%) [%]
CCCCCCCCOC(=O)CC(C(=O)OCCCCCCCC)S(=O)(=O)O.[Na] (stereo not drawn) [MULTIWET ™ MO-70R, sodium dioctyl sulphosuccinate] | 0 | 0 | – | – | – | – | –
alkyl polyethylene glycol ether phosphoric acid mono/diester [HOSTAPHAT ® 1306] | 0 | 9 | 43 | 37 | 27 | 0 | 0
